We go through 58 compounds from PubChem BioAssay AID485344 (National Center for Advancing Translational Sciences (NCATS), 2010).

Where “and” joins values, the source holds several entries; their conditions need not be identical. Equal values may be shown once. The whole screen tested about 340,000 compounds, of which about 6,900 (2%) were called active. No stated cut-off is given here; in the data, active means inhibition above about 30%; inactive means below that, where a call was filed. This is a selection; strong and weak results do not stand in their true shares. Where no call is shown, the source filed none.

A word on the inhibition: it is the change of the read-out against control, counted positive when it falls.

UniProt P14416, sequence (P14416 whole entry, looked up): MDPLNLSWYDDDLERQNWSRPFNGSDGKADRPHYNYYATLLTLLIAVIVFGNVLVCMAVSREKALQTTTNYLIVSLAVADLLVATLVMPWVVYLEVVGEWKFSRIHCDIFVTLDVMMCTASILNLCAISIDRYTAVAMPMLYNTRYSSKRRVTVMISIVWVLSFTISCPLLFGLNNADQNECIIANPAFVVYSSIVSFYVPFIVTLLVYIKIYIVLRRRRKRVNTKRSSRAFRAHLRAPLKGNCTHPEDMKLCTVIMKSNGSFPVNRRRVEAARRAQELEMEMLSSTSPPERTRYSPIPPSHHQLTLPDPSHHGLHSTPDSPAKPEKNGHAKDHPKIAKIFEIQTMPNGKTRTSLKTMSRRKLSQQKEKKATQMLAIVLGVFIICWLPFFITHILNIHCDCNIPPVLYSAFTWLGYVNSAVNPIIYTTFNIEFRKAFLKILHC

The assay concerns the target D(2) dopamine receptor (Homo sapiens) (UniProt P14416). Nature of the assay: HTS Assay for Allosteric Antagonists of the Human D2 Dopamine Receptor: Primary Screen for Antagonists. Further: 0% is about no effect. Conditions: HEK293 TREx D2 cells, calcium flux, dopamine EC80; at 10 µM; stronger effect = higher value. The gist of the method:
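Compounds are added to dye-loaded, induced HEK293 T-REx cells coupled to calcium release via D2; after a 3 min kinetic read an EC80 dopamine stimulus is given and fluorescence is recorded for 3 more min.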
(Calcium flux is commonly read through the fluorescence of an indicator in the cells.)
`Cc1cccc(C(=O)Nc2c(C(=O)NCc3ccc(Cl)cc3)sc3nc(C)cc(C)c23)c1`: the inhibition was -7.85%.
As for `COc1ccc(OC)c(CCNC(=O)c2cnn(-c3ccccc3Cl)c2C2CCN(C(=O)OC(C)(C)C)CC2)c1`, the figure is 2.9%.
Take `COc1ccc(CCNC(=O)c2cn(C)c3ccc(S(=O)(=O)N(C)C4CCCCC4)cc3c2=O)cc1OC`: the inhibition was -11.5%.
For `CC(=O)Nc1ccc(S(=O)(=O)Nc2cc(-c3cn4ccccc4n3)ccc2C)cc1`, the inhibition was -11.6%.
Turning to `COC(=O)c1cc2occc2n1Cc1nc(-c2cccc(Cl)c2)oc1C`, the inhibition turned out to be 13.1%.
Turning to `CSCCC(NC(=O)c1ccccc1)C(=O)NCc1ccc(S(N)(=O)=O)cc1` (stereo not drawn), the inhibition is active: 31.4%.
Turning to `CCOc1ccc(NC(=O)CN(c2ccc(OC)c(OC)c2)S(=O)(=O)c2ccc(C)cc2)cc1`, the inhibition is active: 55%.
The figure for `COc1ccc(NC(=O)Cn2c(=O)n(-c3ccc(C)cc3)c(=O)c3c2cnn3C)cc1` is 11.9%; for `COc1ccc(C)cc1NC(=O)c1ccc(=O)n(Cc2ccccc2)c1` it is -27.5%; for `CC(C)CCNC(=O)C1CCN(c2nc3ccc(Cl)cc3[nH]2)CC1` it is -14%.
As for `CCOC(=O)c1cc2c(=O)n3ccccc3nc2n(Cc2ccco2)c1=NC(=O)c1c(F)cccc1Cl`, the figure is -9.22%; as for `CCOC(=O)c1c(C)[nH]c(C)c1S(=O)(=O)N(C)CC(=O)Nc1ccc(C)c(N(C)C)c1`, 8.25%; as for `O=C(Cn1c(=O)c2cccn2c2ccc(F)cc21)NCCCN1CCN(c2ccccc2F)CC1`, active: 81.8%.
As for `Cc1ccc(Cn2c(SCC(=O)C(C)(C)C)nc3ccsc3c2=O)cc1`, the figure is -0.15%.
With `CCN(C(=O)N(CC)c1ccccc1)c1ccccc1`, the inhibition was active: 42.5%.
As for `CC1=Nc2cc(C(=O)NCCc3ccccc3)ccc2Sc2c(C)ccc(C)c21`, the figure is 2%; as for `CC(C)(C)c1ccc(C(=O)NC2(C(F)(F)F)C(=O)Nc3c2c(=O)[nH]c(=O)n3-c2ccccc2)cc1` (stereo not drawn), 3.58%; as for `Cc1cccn2c(=O)c3cc(C(=O)NCc4cccnc4)c(=N)n(CCCO)c3nc12`, -5%.
The figure for `COC(=O)c1c(C)oc2ccc(N(C(=O)c3ccncc3)S(=O)(=O)c3c(C)cc(C)cc3C)cc12` is 14.7%.
For `CN1CCc2nc3sc(C(=O)Nc4ccccc4OC(F)(F)F)c(N)c3cc2C1`, the inhibition is -13.3%.
As for `O=C(NCc1ccccc1)c1nc(S(=O)(=O)Cc2ccccc2)ncc1Cl`, the figure is 12.6%.
As for `CCCCNCCCOc1cccc(Cl)c1Cl`, the figure is active: 87.3%; as for `Cc1sc2ncn(CC(=O)N3CCN(c4ccc(Cl)cc4)CC3)c(=O)c2c1S(=O)(=O)N1CCN(c2ncccn2)CC1`, 5.85%.
With `CCc1noc(C)c1C(=O)NNC(=O)c1nn(C)c(=O)c2ccccc12`, the inhibition is active: 56.7%.
`CCOC(=O)C1CCCN(C(=O)c2ccc(-n3ccc4ccccc43)s2)C1` (stereo not drawn): the inhibition came out at 0.121%.
On to `COc1cccc(-c2ccc3c(N)c(C(=O)Nc4cc(F)ccc4F)sc3n2)c1`, for which the inhibition is -23.6%.
With `CCC(=O)Nc1ccc2nc(SCCOc3ccc(C)cc3)sc2c1`, the inhibition was -10.5%.
Turning to `CCOC(=O)C1CCN(C(=O)CN2c3ccc(CC)cc3-c3ccccc3S2(=O)=O)CC1`, the inhibition is -12.8%.
As for `CCS(=O)(=O)c1ncc(N(Cc2ccc(F)cc2)Cc2ccco2)c(C(=O)Nc2cc(C)ccc2C)n1`, the figure is 1.75%; as for `CCCn1c(NCc2ccc(N(CC)CC)cc2)nc2ccccc21`, -8.38%; as for `CCCN(CCC)C(=O)Cn1c(=O)n(-c2ccc(OC)cc2)c(=O)c2ccc(C(=O)NCc3ccc(C)cc3)cc21`, -19.8%.
On to `Cc1ccc(-n2c(SCC(=O)Nc3cccc(C)c3)nc3c(oc4ccccc43)c2=O)cc1`, for which the inhibition is -17%.
Turning to `CN1CCN(c2nc3c(S(=O)(=O)c4ccccc4)nnn3c3ccsc23)CC1`, the inhibition is 0.156%.
Regarding `CCN1CCN(c2c(S(=O)(=O)c3ccc(C)c(C)c3)cnc3ccc(F)cc23)CC1`, the inhibition is active: 37.1%.
With `Cn1c(=O)c(NCCc2ccccc2)c2c3c(cccc31)C(=O)c1ccccc1-2`, the inhibition was active: 71.7%.
`Cc1nn(CC(=O)Nc2ccccc2F)c(=O)c2c(C)n(-c3ccc(Cl)cc3)nc12`: the inhibition was -5.73%.
`COc1ccc(NC(=O)CSc2cc(-c3ccccc3)nc(C)n2)cc1`: the inhibition came out at 8.01%.
On to `O=c1c2cnn(-c3ccc(Cl)cc3)c2ncn1Cc1cccc(C(F)(F)F)c1`, for which the inhibition amounted to 4.78%.
With `CCOc1ccc(-c2csc(/C(C#N)=C/c3ccc(Br)cc3)n2)cc1`, the inhibition amounted to 9.42%.
Take `CC(=O)N1c2c(cc(Br)cc2S(=O)(=O)N2CCN(c3cccc(Cl)c3)CC2)CC1C` (stereo not drawn): the inhibition is -8.3%.
The figure for `COc1cccc(N2CCN(C(=O)c3cnn(-c4ccc(C)cc4C)c3C3CCN(C(=O)OC(C)(C)C)CC3)CC2)c1` is 11.7%; for `Cc1ccc(C)c(N2CCN(C3=C(c4ccccc4)C(=O)c4ccccc43)CC2)c1` it is -8.61%.
As to `CCC(=O)Nc1cc(C(=O)NCC2CCCN2CC)c(OC)cc1N(C)C` (stereo not drawn), the inhibition was active: 73.2%.
On to `CC(=O)c1cccc(NS(=O)(=O)c2ccc3c(c2)NC(=O)CC(=O)N3)c1`, for which the inhibition is -6.35%.
As to `CCN(Cc1ccccc1)C(=O)c1cc2c(s1)-c1c(C)cccc1OC2`, the inhibition was -4.87%.
With `Cc1ccc(Cl)cc1NC(=O)Cn1c(=O)n(Cc2ccc(C(=O)NCc3ccc4c(c3)OCO4)cc2)c(=O)c2ccccc21`, the inhibition turned out to be 7.25%.
Regarding `O=C(CN1C(=O)COc2ccc(S(=O)(=O)N3CCOCC3)cc21)N1CCN(c2ccc(F)cc2)CC1`, the inhibition is -2.52%.
As for `CC(Sc1nc(=O)cc(N)n1CCc1ccccc1)C(=O)Nc1ccccc1C#N` (stereo not drawn), the figure is -13.6%; as for `O=C(NC1CCCCC1)c1ccc2c(c1)N(Cc1ccc(Cl)cc1)C(=O)c1ccccc1S2(=O)=O`, 10.8%; as for `COc1ccc(OC)c(NC(=O)CN2C(=O)CCc3cc(S(=O)(=O)N4CCCCC4)ccc32)c1`, -28.6%.
On to `Cc1nnc(NCc2ccccc2)c2c1nnn2Cc1ccc(F)cc1`, for which the inhibition was 16.1%.
For `CCc1cccc(NC(=O)Cn2nc(-c3cc(C)ccc3C)ccc2=O)c1`, the inhibition is 12.3%.
The figure for `Cc1ccc(CN2C(=O)C3(c4ccccc42)N(c2cccc(C(F)(F)F)c2)C(=O)CS3(=O)=O)cc1` (stereo not drawn) is 7.07%; for `O=c1cc(CSc2n[nH]c(-c3ccccc3)n2)[nH]c2ccccc12` it is 16.3%; for `COc1ccccc1NC(=O)CSc1oc(-c2cccs2)nc1S(=O)(=O)c1ccccc1` it is -9.74%.
As to `COc1cc(NC(=O)c2cc3c(=O)n(Cc4cccs4)ccc3nc2C)cc(OC)c1OC`, the inhibition was -17.6%.
Consider `CC(Oc1ccccc1Cl)C(=O)N1CCN(CCc2ccccn2)CC1` (stereo not drawn), for which the inhibition was determined as 10%.
`Cc1ccc(C)c(Cn2nc(-c3cc(C)ccc3C)ccc2=O)c1`: the inhibition is 0.0569% and active: 35.3%.
